Data as given in ChEMBL document CHEMBL4888484, “Replenishing the malaria drug discovery pipeline: Screening and hit evaluation of the MMV Hit Generation Library 1 (HGL1) against asexual blood stage Plasmodium falciparum ,using a nano luciferase reporter read-out” (2022).
Out of some 150,000 compounds screened, about 540 (0.36%) showed an effect of 50% or more. Some of the results follow.

System: Plasmodium falciparum
Experiment: Primary screen in NF54 nanoGlo assay, in single point, at 2uM, 72h; a lower Z score goes with more inhibition
Format: functional, Erythrocyte
Details: timepoint 72 hour

SMILES	% Inhibition [%]	Z score
CCn1ncnc1[C@@H](NC(=O)c1ccc2c(c1)OCO2)C1CC1	4	-0.55
O=C(NC1CCN(c2ccccc2C(=O)N2CCN(C3CCCCCC3)CC2)CC1)c1cccc(F)c1	1	-0.12
CN1C[C@@H](N)C[C@H]1c1nc(COc2ccc(F)cc2)nn1CC(F)(F)F	1	-0.2
C#CC(CC)(CC)NC(=O)c1cccc(Cl)c1	-6	0.77
CC[C@](O)(CCCO)CNC(=O)c1nccn1C	-4	0.66
Cc1ncsc1-c1ccc(CN[C@H]2CCO[C@@H]2c2cc[nH]n2)cc1	-2	0.2
CC(C)N1C(=O)N[C@]2(CCN(CCOCC(F)(F)F)C2)C1=O	-12	2.09
CCc1onc(C)c1[C@@H]1CCCN1C(=O)Nc1cccc(F)c1	4	-0.51
CCn1c(Cn2cnc(C(=O)OC)n2)nc2c(F)cccc21	-14	2.68
Cc1ccsc1C(=O)Nc1cnn(-c2ncc(Cl)cc2Cl)c1	-22	4.17
O=C(Nc1cnns1)[C@H]1CCC(=O)N(C2CC2)[C@@H]1c1ccncc1	-3	0.48
CS(=O)(=O)N1CCN(C(=O)NCC[C@H](O)c2cccc(Cl)c2)C1=O	-18	2.33
CCCC1(CNc2cncc(C(N)=O)n2)CCC1	-6	1
O=C(NCCS(=O)(=O)c1ccc(F)cc1)c1n[nH]c2c1CCC2	-18	2.64
C[C@H](NC(=O)C1CCN(S(=O)(=O)Cc2ccccc2)CC1)c1ccccc1	-15	2.74
COc1nccnc1N1CC[C@]2(CCOC2)C1	-2	0.25
O=C1c2cc(Cl)c(Cl)cc2C(=O)N1c1cccc(Oc2ccccc2)c1	-21	3.6
O=C(Cn1cnnn1)Nc1ccc(N2C(=O)c3ccccc3C2=O)cc1	2	-0.38
O=C(NC1CCCCC1)[C@H]1CNC[C@@H](COc2cccc(F)c2)C1	-5	0.95
Cc1nccc(-c2cccc(NC(=O)Cc3cc(Cl)c4c(c3)OCCCO4)c2)n1	-51	6.03
COc1ccc(CCCN2CCS(=O)(=O)C(C)(C)C2)cc1F	-11	1.17
CC[C@H](NCc1nnnn1C(C)C)c1cc(F)ccc1F	-18	1.61

SMILES	% Inhibition [%]	Z score
Cc1ccc(NC(=O)CCN2CCC3(CCC(=O)NC3)CC2)cc1Cl	-9	1.36
O=C1CN2C(=O)[C@]3(CCN(C(=O)CN4CCOCC4)[C@H]3c3cccc(c3)OCCCN1)c1ccccc12	0	0.02
CCOC(=O)c1ccc2cn(C(C)=O)nc2c1	-7	0.75
Cc1nn(-c2ccccn2)c(O)c1C(c1ccccc1)c1c(C)nn(-c2ccccn2)c1O	96	-9.38
Cc1ccc(CCC(=O)N2CCC(N3CCC[C@@H]3COCc3ccccc3)CC2)cc1C	-3	0.49
Cc1ccc(OCCN)c(C(=O)N2CCNC(=O)[C@@H]2c2ccc(F)cc2)c1	5	-0.61
Nc1cccc(C(=O)OC[C@@H](O)CO)c1	-1	0.19
COc1ccc(NC(=O)CC[C@@H]2NC(=O)c3ccccc3NC2=O)cc1N1CCCCS1(=O)=O	-10	1.25
Cn1cc([C@@H](NC(=O)Nc2cccc(Cl)c2)C2(CO)CCC2)cn1	0	0.03
C=CCc1c(C)nn(-c2nc(CC(=O)NCCC)cs2)c1C	-15	2.49
CN(C)c1nc(NCc2n[nH]c(=O)[nH]2)ncc1F	-1	0.09
CCOc1ncccc1-c1nc2c(cc1C(N)=O)CCC2	3	-0.34
c1cc2c(cc1CN1CCN(Cc3noc(C4CC4)n3)CC1)CCO2	-4	0.57
CC1CCCC(OCC(=O)N2CCC3CCC(C2)N3C)C1 (stereo not given)	-4	0.39
O=C(Nc1ccc2ccccc2c1)c1sc2ccccc2c1Cl	0	-0.02
Cc1cc(C)cc(NC(=O)CC2(CC3=Nc4ccccc4S(=O)(=O)N3)CCCC2)c1	3	-0.35
CCc1nnc(NC(=O)c2cc(-c3ccc(Cl)cc3Cl)oc2C)s1	-30	3.95
CC[C@@H](c1ccncc1)N(CC)C(=O)c1cccnc1C	-1	0.09
O=C(NCCCc1nc2c(s1)CCCC2)c1csnn1	-8	1.1
Cc1ccc(-c2nc(N[C@H]3CCS(=O)(=O)C3)ncc2-c2cncnc2)cc1	-14	2.32
Cc1ccc(C)c(NC(=O)CNC(C)(C)C)c1	-4	0.65
CC(C)C1CCC(NC(=O)c2cc3n(n2)CCCC3)CC1 (stereo not given)	1	-0.17

SMILES	% Inhibition [%]	Z score
CONC(=O)N[C@H](c1ccccc1Cl)C(C)C	-14	1.31
Nc1nc(CNC(=O)[C@H]2CCOc3ccccc3C2)n[nH]1	-14	2.78
COCc1cc(NC(=O)NCc2ccc(Cl)c(C)c2)ncn1	0	-0.01
O=C(NCC[C@H]1CCCCN1C1CCCC1)[C@H]1CC[C@H](O)CC1	-5	0.93
Cc1ccc(F)cc1C(=O)N(c1cccc(F)c1)C1CCOCC1	-14	1.52
Cc1cc(-c2nn(-c3ccccc3F)cc2CN(C)C[C@H]2COCCO2)c(C)s1	-7	1.31
Cc1nc(C)c(CC(=O)N2CCNC(=O)[C@@H]2Cc2ccccc2)s1	-3	0.49
Cc1c(C(=O)N2CCN(Cc3cc(F)cc(F)c3)CC2)ccn1C	-12	1.97
Cc1noc(C)c1CN(C)C(=O)Nc1c(C)c(-c2ccccc2)nn1C	-14	1.69
Cc1cc(NCc2nc(-c3cnccn3)n[nH]2)nc(Nc2cccc(O)c2)n1	-1	0.08
COc1ccc2c(c1)CCc1c(C(=O)NCc3ccccc3OC)n[nH]c1-2	-1	0.11
O=C(NCCc1nnc2ccccn12)C1(c2cccc(F)c2)CCCCC1	-4	0.64
O=C(Cc1ccc(Br)cc1)n1cnc2ccccc21	8	-0.94
Cc1ccc2c(c1)c(=O)n(Cc1ccccc1)c(=O)n2CC(=O)N[C@@H](C)c1ccccc1	-16	2.6
CN(c1ccc(C(F)(F)F)cn1)C1CCCCC1	-20	2.34
CC[C@H](C)NC(=O)NCCN1Cc2ccccc2C1	-20	1.87
O=S(=O)(CCC1CCCO1)N1CCCC(N2CCCCC2)C1 (stereo not given)	-4	0.4
CCC(NCCC(=O)N1CCc2ccccc2C1)C1CCCO1 (stereo not given)	0	0.02
Cc1noc([C@H]2CCC(=O)N(CCc3ccccc3)C2)n1	-2	0.27
C[C@H]1CCN(C(=O)c2ccoc2)CC12CCC2	-37	4.36
CCCn1c(C(=O)NCCc2ccccn2)cc2cc(NC(=O)c3ccco3)ccc21	-5	0.63
CCc1nnsc1C(=O)NCCCN1CCC[C@H](C)C1	-7	0.99

SMILES	% Inhibition [%]	Z score
Cc1sc(-c2cc(C(F)(F)F)on2)cc1S(=O)(=O)Nc1cccc(Cl)c1C	0	0.03
Cc1cc(Cl)ccc1NC(=O)CCn1c(=O)sc2cc(S(=O)(=O)N3CCCC3)ccc21	-1	0.25
Cc1ccc2c(NC(=O)NC[C@H]3CCOC3)cccc2n1	15	-2.12
Cc1sc(-c2ccn[nH]2)cc1NC(=O)c1n[nH]c2ccccc12	7	-0.7
CCc1nnc2ccc(N3CCN(C)C(=O)C3)nn12	3	-0.4
COCCNC(=O)C(O)C(C)c1ccc(C)cc1 (stereo not given)	-15	1.73
COc1ccc(N2CCN(C(=O)Cn3ccc4ccc(N5CCOCC5)nc43)CC2)cc1	-3	0.45
CNS(=O)(=O)C[C@H]1CCCN1c1nc(C)cnc1C	-7	1.37
N#Cc1ccc(CC(C#N)(Cc2ccc(C#N)cc2)C(=O)Nc2ccc(F)cc2F)cc1	-9	1.69
CC(CC1CCCN1C(=O)OC(C)(C)C)N[C@H]1CC[C@H](O)CC1 (stereo not given in full)	-7	0.92
Cc1nc(-c2cccnc2)nc(NCCNC(=O)N(C)C)c1C	-8	0.86
O=C(N[C@H]1CN(C(CO)CO)C[C@@H]1C1CC1)c1ccsc1	-10	1.67
Cc1nc(N2CCOCC2)nc(C)c1NC(=O)CC(C)C	-8	1.18
c1cncc(-c2nc3c(cnn3Cc3cccs3)[nH]2)c1	-3	0.24
C=CCn1ncc(-c2cn([C@@H](CC)c3cc(C)ccn3)nn2)c1C	10	-1.39
O=C(CCc1ccncn1)NCCOCc1ccc(Cl)cc1Cl	1	-0.12
Cc1c(C2Nc3ccccc3C(=O)N2CC2CCCO2)cc(C#N)n1C (stereo not given)	-15	1.99
CCS(=O)(=O)Cc1nc2c([nH]1)C[C@H](c1ccc(F)cc1)CNC2=O	2	-0.32
CCC1CCC(C(=O)N(Cc2cccc(OC)n2)CC2(C)COC2)O1 (stereo not given)	-12	1.66
